Test results published in publication PMC7819943, “Rice protein-binding microarrays: a tool to detect cis-acting elements near promoter regions in rice”.
The list shows a part of the results.

molecular target: T1, OsWOX13 (Oryza sativa, UniProt Q5QMM3 1-267); experiment: protein-binding microarray (RPBM); PBS, 2% BSA, 51.3 ng/ul salmon testes DNA, 50 uM zinc acetate, 200 nM TF, 25 C, 1 h; high values mean tight binding; details: protein: recombinant; tags: N-terminal polyhistidine and DsRed monomer fusion (pET32a); label: CyDye5-dUTP incorporated in the synthesized complementary strand; 3' TTTTT single-stranded linker to array surface; dsDNA, one strand shown
T1 sequence: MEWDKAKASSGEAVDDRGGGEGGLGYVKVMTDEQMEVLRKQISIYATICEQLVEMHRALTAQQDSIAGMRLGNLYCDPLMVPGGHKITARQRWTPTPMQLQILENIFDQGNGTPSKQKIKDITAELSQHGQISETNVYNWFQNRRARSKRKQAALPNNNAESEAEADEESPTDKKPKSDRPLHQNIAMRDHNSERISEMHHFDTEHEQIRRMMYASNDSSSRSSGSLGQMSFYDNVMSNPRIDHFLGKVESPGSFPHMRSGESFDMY
Method in brief: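 The binding signal is fluorescence intensity per feature, in arbitrary units, read on an Axon 4000B scanner. Polyhistidine- and DsRed-tagged transcription factors (N-terminal fusions) from E. coli BL21-CodonPlus were purified on Ni–NTA and applied at 200 nM for 1 h at 25 °C to a double-stranded, BSA-blocked custom Agilent array in buffer with 50 µM zinc acetate.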

| Sequence | binding signal |
| --- | --- |
| TCATTAATTGTTTCTGTTACATACTGGAGTAGTAAGGATACGGAGTCACCTAGTGCAG | 22100 fluorescence intensity (a.u.) |
| TATTTTCAATTATAGGTCTAATTGTTTTATTTAGGTGATTCGGAGTCACCTAGTGCAG | 20500 fluorescence intensity (a.u.) |
| AATAATTGAGGGCAGGGAGGTGATGAAGCAACCTCCACTCCGGAGTCACCTAGTGCAG | 19300 fluorescence intensity (a.u.) |
| AGCGATTCAATTGGTTAATTGTGTTGAAGTCTATTGTTGCCGGAGTCACCTAGTGCAG | 4750 fluorescence intensity (a.u.) |
| ATCTAATCATAGGTGAGCTAACCGAGGAAGAACAATGCAACGGAGTCACCTAGTGCAG | 5440 fluorescence intensity (a.u.) |
| AAAGGCAATTACGAGGCACTAACAACTTTCCTAGCACGGCCGGAGTCACCTAGTGCAG | 5250 fluorescence intensity (a.u.) |
| GTAGATATCGAGCTAATTAGCAATAAGGTCAAACAGCAACCGGAGTCACCTAGTGCAG | 13300 fluorescence intensity (a.u.) |
| ATGATTGACAAGATGAATCAGCACGCTGTTGGAAAAGGGACGGAGTCACCTAGTGCAG | 55400 fluorescence intensity (a.u.) |
| TAGTTTATACTCAATTAATCATGTACTAATAGCTCACCTCCGGAGTCACCTAGTGCAG | 6820 fluorescence intensity (a.u.) |
| TCATCAATCCATATAAACTGGACTAGGGCTATTATCTGCTCGGAGTCACCTAGTGCAG | 10700 fluorescence intensity (a.u.) |
| AGTAACTGTAACTGAAGAAGCCGGCGCCACCATTCCCGCCCGGAGTCACCTAGTGCAG | 6680 fluorescence intensity (a.u.) |
| GTTTCAAATTAATTATCATGTAACATTAGACTATATGAAACGGAGTCACCTAGTGCAG | 16100 fluorescence intensity (a.u.) |
| CAATGGGATGACTGCGGTGAATTGCAAGACCAATGGGATGCGGAGTCACCTAGTGCAG | 3390 fluorescence intensity (a.u.) |
| ACAATTGAAATTTGCCAACAAAATTTTCCAAATTCGAAGACGGAGTCACCTAGTGCAG | 7220 fluorescence intensity (a.u.) |
| CTGTAATAAATTATTAACCTAGGCTTTGTAGCTGTCTAAACGGAGTCACCTAGTGCAG | 5140 fluorescence intensity (a.u.) |
| GCTGATTACATCCGTCTCACTTTGACCATGGATTACTTTTCGGAGTCACCTAGTGCAG | 34900 fluorescence intensity (a.u.) |
| TGCTAGAATGATTTACGTTATGAAACTGAGGGAGTACATCCGGAGTCACCTAGTGCAG | 5380 fluorescence intensity (a.u.) |
| TACATCAGCTTCACTAGATTAATTGGCACATCATCTGACTCGGAGTCACCTAGTGCAG | 9810 fluorescence intensity (a.u.) |
| TGAAAATTTCTTCAGTGACTGAGTATTGCTCTTCACCCATCGGAGTCACCTAGTGCAG | 6860 fluorescence intensity (a.u.) |
| GGGGAGGCGGGGTGGCGGGAGGGAAGGCGGCGGCGGCGCCCGGAGTCACCTAGTGCAG | 4430 fluorescence intensity (a.u.) |
| GATAATTTGTTTGTTCTCCGAAATTACCAAACTGTCCTTTCGGAGTCACCTAGTGCAG | 25400 fluorescence intensity (a.u.) |

| Sequence | binding signal |
| --- | --- |
| CAAGATTATTAGCACGGATTATATCTATTTCATTAACAAACGGAGTCACCTAGTGCAG | 3310 fluorescence intensity (a.u.) |
| ATAATTAATTTTGAAGGGAAATGGAAGGCATCCTTCTTGGCGGAGTCACCTAGTGCAG | 47700 fluorescence intensity (a.u.) |
| ACTAACAATTATTATATCGATTATTTTAAATATCATGTTACGGAGTCACCTAGTGCAG | 7610 fluorescence intensity (a.u.) |
| GTCAAATTAGCCACGTATGCGCCACGACAGCTAAAATCACCGGAGTCACCTAGTGCAG | 4230 fluorescence intensity (a.u.) |
| ACGGCTTAATTAGGCTCAAAAGATTCGTCTCACGGTTTTCCGGAGTCACCTAGTGCAG | 4220 fluorescence intensity (a.u.) |
| ACACCTAACCATTCAATCCAAAATCAAACAACCGAAGACTCGGAGTCACCTAGTGCAG | 3190 fluorescence intensity (a.u.) |
| CTTAATTGTAAATCGTTACAGTTTGTTGTCATTTCATTTCCGGAGTCACCTAGTGCAG | 25600 fluorescence intensity (a.u.) |
| ACTTTGATCCATCTATCAAATCAGCATGCGTGCCTAGCAACGGAGTCACCTAGTGCAG | 3170 fluorescence intensity (a.u.) |
| TCATCGGGATTGAATTCTCCTTAATTAAATGGAAGAGTGACGGAGTCACCTAGTGCAG | 14800 fluorescence intensity (a.u.) |
| TTCAGTTGAAATCATTTAGTAATTATAAATGTTGTTTGAACGGAGTCACCTAGTGCAG | 8860 fluorescence intensity (a.u.) |
| TCCCTGTTGTATTTCTTTAATTTGTTTGTGATATATACAACGGAGTCACCTAGTGCAG | 4030 fluorescence intensity (a.u.) |
| TACCACCACTGATTGAGTTGGGTCAGGTCGAACTTCTCTCCGGAGTCACCTAGTGCAG | 12800 fluorescence intensity (a.u.) |
| CCAAATTTGTTGCGAGATTTGAGGTTTCCTTGCGTGCTTGCGGAGTCACCTAGTGCAG | 15000 fluorescence intensity (a.u.) |
| AGGCAGCAATAATTAATGGCAAAACTTTACCATGTATCTACGGAGTCACCTAGTGCAG | 4970 fluorescence intensity (a.u.) |
| TGCCATTCACTAATAATTGCCAACATAACAAACTGACAGCCGGAGTCACCTAGTGCAG | 12700 fluorescence intensity (a.u.) |
| AGCAATGCAACGATTATTAATTTAATTTGCACATGTATTGCGGAGTCACCTAGTGCAG | 5900 fluorescence intensity (a.u.) |
| AGTCTCTAAATTACATATGTAAATTTAGTGTATTTATAATCGGAGTCACCTAGTGCAG | 12200 fluorescence intensity (a.u.) |
| AGTTACTAATTGATTCAGATGCATGGCAGTATAATTGTCTCGGAGTCACCTAGTGCAG | 44900 fluorescence intensity (a.u.) |
| ATGAGCTTATGCCTGATTGAGAGGTTTCATCGGATTGAAACGGAGTCACCTAGTGCAG | 5950 fluorescence intensity (a.u.) |
| CATCAATCATCATTACATATTCTGTCAGTAATAATCCGAGCGGAGTCACCTAGTGCAG | 38800 fluorescence intensity (a.u.) |
| TTAAACATTCTATAATTTAGTCTGTTATTAAGCTACGTTTCGGAGTCACCTAGTGCAG | 10500 fluorescence intensity (a.u.) |
